# Reference: PubChem BioAssay AID488969 (Vanderbilt High Throughput Screening Facility, 2010)
# Whole data set: some 110,000 compounds, median “z-score” near -0.1, cut for the highest 2% near 2. Some of the results follow. Active and inactive are the calls of the source.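 The calls were made as follows: active = z-score in the third read window above 3 or below -3; inactive = the rest.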
# Target: Metabotropic glutamate receptor 8 (Rattus norvegicus) (UniProt P70579)
# Assay: rat mGluR8 modulators via GIRK flux, primary screen, cell-based, thallium flux, HTS (AID 488969)
# Settings: HEK293 rat mGluR8, GIRK (G protein-gated inwardly rectifying potassium channel) thallium flux, FluoZin2; at 10 µM; stronger effect = higher value; submaximal glutamate (EC20) added with thallium
# UniProt P70579, sequence (P70579 whole entry, looked up): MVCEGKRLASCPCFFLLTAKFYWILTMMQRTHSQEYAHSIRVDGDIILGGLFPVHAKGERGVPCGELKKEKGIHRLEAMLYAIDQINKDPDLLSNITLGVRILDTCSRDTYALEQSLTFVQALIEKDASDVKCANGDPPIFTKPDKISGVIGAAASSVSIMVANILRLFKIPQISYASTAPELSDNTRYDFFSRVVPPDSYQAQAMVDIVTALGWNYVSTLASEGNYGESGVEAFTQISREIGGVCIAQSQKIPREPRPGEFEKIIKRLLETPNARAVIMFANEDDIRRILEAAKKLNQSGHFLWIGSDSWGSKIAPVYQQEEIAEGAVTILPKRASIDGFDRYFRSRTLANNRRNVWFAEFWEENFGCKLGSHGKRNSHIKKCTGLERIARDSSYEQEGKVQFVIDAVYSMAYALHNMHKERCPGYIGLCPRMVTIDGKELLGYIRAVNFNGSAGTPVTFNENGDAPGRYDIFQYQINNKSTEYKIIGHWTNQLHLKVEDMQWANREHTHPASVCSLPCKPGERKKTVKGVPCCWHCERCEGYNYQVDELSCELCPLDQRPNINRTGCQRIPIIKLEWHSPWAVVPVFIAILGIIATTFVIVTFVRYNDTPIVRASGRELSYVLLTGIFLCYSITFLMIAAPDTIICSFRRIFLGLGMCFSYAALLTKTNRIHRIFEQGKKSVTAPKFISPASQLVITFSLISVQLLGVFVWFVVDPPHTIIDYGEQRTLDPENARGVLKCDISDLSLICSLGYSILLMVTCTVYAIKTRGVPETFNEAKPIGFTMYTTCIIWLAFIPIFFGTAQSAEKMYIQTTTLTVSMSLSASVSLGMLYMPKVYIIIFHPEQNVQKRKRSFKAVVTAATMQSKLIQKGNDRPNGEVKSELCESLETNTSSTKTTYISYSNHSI
row,SMILES,z-score
1,CC(C)[C@H](NC(=O)c1ccccc1)C(=O)OCC(=O)NCCC1=CCCCC1,-0.405
2,C/C=C(\C)CN1CCN(c2ccc(C)cc2)CC1,-0.167
3,CN(C)CCCOC(=O)c1ccccc1Cl,0.35
4,CCOC(=O)N=S(N)(=O)c1ccc(Cl)cc1 (stereo not given),-1.25
5,COc1ccc(S(=O)(=O)N2CCN(c3ccc4nnc(-c5ccccc5)n4n3)CC2)cc1,-0.253
6,Cc1ccc(S(=O)(=O)N(CC(=O)N2CCCCCC2)c2ccccc2)cc1,0.0938
7,COc1ccc(-c2nc(N=Nc3ccc(O)cc3)n[nH]2)cc1,-0.152
8,O=C(NCCc1c[nH]c2ccccc12)Nc1ccccc1,0.109
9,CCCCn1c(NC(=O)c2ccc(Br)o2)c(S(=O)(=O)c2ccccc2)c2nc3ccccc3nc21,-0.332
10,O=C(COC(=O)[C@H](Cc1ccccc1)NC(=O)c1ccco1)NC(c1ccccc1)c1ccccc1,-0.454
11,c1ccc(-c2n[nH]c(-c3ccccc3)c2-c2nc3ccccc3[nH]2)cc1,-1.66
12,Cc1csc(NC(=O)CSc2nnc(-c3ccccc3)o2)n1,-0.413
13,O=C(C1=NN[C@@H]2C(=O)N(c3ccccc3C(F)(F)F)C(=O)[C@H]12)C(c1ccccc1)c1ccccc1,0.407
14,CC(C)CC[n+]1ccn(C2=C([O-])c3ccccc3C(=O)/C2=N\S(=O)(=O)c2ccccc2)c1,-0.902
15,Cc1ccc(CSCCNC(=O)CCSc2ccccc2)cc1,-0.202
16,O=C1NCCCC1C(=O)Nc1ccccc1C(F)(F)F (stereo not given),-0.0995
17,COc1ccc(CNC(=O)Cn2nnc(-c3ccc(NC(=O)C4CCCCC4)cc3)n2)cc1,-0.24
18,CCOC(=O)N1CCN(c2c(-c3ccccc3)c3cc(Cl)ccc3[nH]c2=O)CC1,-0.212
19,CNC(=O)c1[nH]cnc1C(=O)Nc1cccc(OC)c1,-0.12
20,Cc1ccccc1NC(=O)C1CCCN(S(=O)(=O)c2c(C)noc2C)C1 (stereo not given),-0.291
21,O=C(CCCOc1ccccc1)N1CCN(c2ccc(F)cc2)CC1,-0.205
22,O=[N+]([O-])c1nn(-c2ccc3c(c2)OCCO3)n(O)c1=NCc1ccccc1Cl,-0.131
23,O=C(NCCc1nc2ccccc2[nH]1)/C(=C/c1ccco1)NC(=O)c1ccc(Br)cc1,1.33
24,COc1ccc(N=c2sc3ccccc3n2C)cc1,-0.258
25,CCOC(=O)c1c(C)n(C(=O)c2ccco2)c(=O)n1C(=O)c1ccco1,-1.47
26,CCOC(=O)c1nnc(-c2ccccc2)nc1Sc1c(Cl)cccc1Cl,-0.0848
27,COC(=O)c1sccc1NC(=O)c1ccc(Br)s1,0.0824
28,O=C(Nc1ccc(O)c(-c2nc3ccccc3o2)c1)C1(c2ccc(Br)cc2)CCCC1,-0.297

row,SMILES,z-score
1,CC(C)NC(=O)c1ccc(-n2nc(C(F)(F)F)c3c2CCCC3)cc1,0.427
2,COCc1nnc(SCC(=O)NCc2ccccc2)n1-c1ccccc1,-0.0133
3,CCOC(=O)c1nnn(-c2nonc2-n2cccc2)c1C,0.116
4,O=C(CSc1ncnc2c1oc1ccccc12)NCc1ccco1,-0.357
5,Cc1c(Cl)cccc1NC(=S)N1CCN(C(=O)C2CCCO2)CC1 (stereo not given),-0.062
6,CCCN(Cc1ccccc1)C(=O)Nc1ccc2c(c1)nnn2C,-0.00232
7,COC(=O)c1sccc1NC(=O)c1csc2c1CCCC2,-0.243
8,CCOc1ccc2c(=O)c(Oc3ccccc3OCC)coc2c1,0.145
9,COc1cc(OC)cc(C(=O)NC2CCSC2=O)c1 (stereo not given),0.0354
10,O=C(NC(=O)c1ccc(Cl)cc1)Nc1cc(N2CCCCC2)ncn1,-0.336
11,COc1ccc(CCNC(=O)CN(c2ccc(OC)c(OC)c2)S(C)(=O)=O)cc1,0.279
12,COc1ccc(C2SCCN2C(=S)Nc2ccc(F)cc2)cc1 (stereo not given),0.313
13,CC(C)c1ccc(NC(=S)NN(c2ccccc2)c2ccccc2)cc1,-0.422
14,COc1c(Cl)cnn(-c2ccc(C)cc2)c1=O,0.0158
15,Cc1cc(C)c(S(=O)(=O)c2ccccc2)c(OC(=O)c2c(F)cccc2Cl)n1,-1.45
16,CCCN1CCC(NC(=O)Nc2ccc(F)cc2F)CC1,2.81
17,Cc1nc2ccccc2nc1OCc1cccc(Cl)c1,-0.33
18,CC1CCN(CC(C)OC(=O)c2ccc3c(c2)OCCO3)CC1 (stereo not given),0.278
19,CCC(CC)C(=O)NCCc1cc2ccc(C)cc2[nH]c1=O,-0.142
20,N/C(=N\OC(=O)Cc1ccc(Cl)cc1)c1ccccn1,-0.151
21,O=S(=O)(c1cccc(-c2nnco2)c1)N1CCCC1,-0.192
22,CCN(CC(=O)NCc1ccc(F)cc1)C(=O)COc1ccc2ccccc2c1,-0.144
23,C=C(C)c1cccc(C(C)(C)NC(=O)NCC2CCCO2)c1 (stereo not given),-0.323
24,C/C(CC(=O)NC(C)C)=N\NC(=O)COc1cc(C)c(Br)cc1Br,active: 6.24
25,FC(F)(F)c1cc(Cl)c2nc(-c3ccccc3)cn2c1,-0.159
26,O=C(Nc1ccccc1-c1ccccc1)C12CC3CC(CC(C3)C1)C2,-0.47
27,CCOC(=O)c1sc(NC(=O)c2cccc(S(=O)(=O)N3CCN(C)CC3)c2)cc1C,0.236
